In the BET-seq Pho4 binding data (Le et al. 2018):
The list shows a part of the results. These are noisy estimates, calculated here from bound and input reads.

These sequences were tested against T1, Pho4 (S. cerevisiae) (UniProt P07270) (assay: relative binding free energy (BET-seq); higher = weaker binding). Conditions: reference: library average.
T1 sequence: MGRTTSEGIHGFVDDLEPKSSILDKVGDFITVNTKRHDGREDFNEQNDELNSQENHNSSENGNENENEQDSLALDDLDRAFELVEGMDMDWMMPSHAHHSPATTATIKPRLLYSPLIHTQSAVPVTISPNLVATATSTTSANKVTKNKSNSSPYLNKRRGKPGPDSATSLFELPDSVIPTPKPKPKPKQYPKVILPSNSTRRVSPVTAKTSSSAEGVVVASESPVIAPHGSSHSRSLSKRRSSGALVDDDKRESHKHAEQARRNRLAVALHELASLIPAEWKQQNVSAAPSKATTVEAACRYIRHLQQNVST

Row | Sequence | relative binding free energy [kcal/mol]
1 | GTGGTCACGTGAGAGC | 0.43
2 | AAATGCACGTGGACGG | 0.02
3 | ATAATCACGTGTTTTT | 0.1
4 | GGATTCACGTGGTATA | 0.29
5 | GTGTTCACGTGTTAAA | 0.32
6 | CTGATCACGTGGTGGA | 0.17
7 | GGGGTCACGTGAAACG | 0.37
8 | GTAGACACGTGTTTTT | 0.01
9 | GCGGGCACGTGGATTT | -0.09
10 | TGAGGCACGTGTTTGC | -0.29
11 | TAATGCACGTGTTCTT | -0.01
12 | TACCGCACGTGGGTGT | -0.16
13 | TAGGACACGTGGTTTA | -0.04
14 | GAGTGCACGTGCGGTT | -0.05
15 | TCTGGCACGTGAGAGA | 0.18
16 | GTGTTCACGTGAGTCA | 0.45
17 | GTGCTCACGTGGGGTC | 0.08
18 | TCCATCACGTGTTTGT | 0.09
19 | GGGCACACGTGCGTGT | -0.14
20 | TTCGACACGTGGTTAG | 0.01
21 | TGTAACACGTGTATTA | -0.03
22 | AAGGTCACGTGCGTAT | 0.02
23 | TGCTACACGTGCTTGT | 0.06

Row | Sequence | relative binding free energy [kcal/mol]
24 | TGGTTCACGTGGTGAT | 0.2
25 | GGGGTCACGTGTCTTG | 0.08
26 | ATTCGCACGTGAAGGG | 0.24
27 | GTGGGCACGTGTAGTC | -0.08
28 | TTTGTCACGTGATTTT | 0.41
29 | TTATGCACGTGACATG | 0.11
30 | GGTAGCACGTGGGGAT | -0.11
31 | TGGCACACGTGGTGGG | -0.01
32 | TGATGCACGTGCGGTT | -0.07
33 | CACAGCACGTGGGGGT | -0.34
34 | CATTTCACGTGGAGTT | 0.18
35 | TGTTGCACGTGTAATG | 0.16
36 | TTATGCACGTGGTAAG | -0.14
37 | ATGAGCACGTGTTAGA | 0
38 | GCTAGCACGTGGTTGT | 0.02
39 | ATCGGCACGTGGGCTT | -0.17
40 | AGTAACACGTGTTAGG | -0.02
41 | ATAGGCACGTGAGGGG | 0.13
42 | GTGGTCACGTGACTAT | 0.15
43 | GGAGTCACGTGATATC | 0.5
44 | TCTGTCACGTGGTTAG | 0
45 | AAGGGCACGTGTAATG | 0.01
46 | GGGAGCACGTGAGCAG | 0.12

Row | Sequence | relative binding free energy [kcal/mol]
47 | GGAGTCACGTGTTGGG | 0.21
48 | AATAGCACGTGGTATT | -0.22
49 | ATTTGCACGTGCCTGG | -0.13
50 | GCGCGCACGTGGGCGG | -0.39
51 | AAGTGCACGTGTTTGG | -0.05
52 | TTTTTCACGTGTGGAT | 0.39
53 | GGTGACACGTGAGGAG | 0.22
54 | GGACTCACGTGGGTTT | 0.3
55 | CCCGGCACGTGGTGGT | -0.22
56 | GCTTGCACGTGGCTGG | -0.15
57 | GGCTACACGTGCGTGT | 0.07
58 | TGTAACACGTGAGGCG | 0.11
59 | TTGTTCACGTGGTTTG | 0.28
60 | AGTTGCACGTGCGTCT | -0.1
61 | GAATTCACGTGGTCAT | 0.48
62 | GTGTGCACGTGTCGGC | 0
63 | CTCGTCACGTGGGGTG | -0.03
64 | AGGGTCACGTGTAATT | 0.15
65 | GTTTTCACGTGTTAGC | 0.37
66 | AACGGCACGTGTATGA | 0.14
67 | TTATACACGTGTCTTG | 0.07
68 | TGTAGCACGTGAAGGA | 0.12
69 | TGTGGCACGTGATGCA | -0.04

Row | Sequence | relative binding free energy [kcal/mol]
70 | GAAAACACGTGGGTTT | 0.07
71 | GGGGACACGTGGGAAG | -0.04
72 | ATAGGCACGTGGGCCG | -0.29
73 | CTGTTCACGTGTGATA | 0.18
74 | ACTTTCACGTGTTGTG | 0.16
75 | TATGTCACGTGGCCTA | 0.08
76 | GGGATCACGTGGCATG | 0.17
77 | TATGGCACGTGATTAG | -0.08
78 | AGTGTCACGTGTCAAT | 0.24
79 | AATGTCACGTGTTATT | 0.16
80 | GGGGGCACGTGGGTCA | -0.18
81 | ATCGGCACGTGGATTA | -0.01
82 | ATTGCCACGTGTTTTT | -0.12
83 | AAGTTCACGTGAAGGT | 0.29
84 | GGTTTCACGTGTTGGA | 0.33
85 | AGTAGCACGTGGTAAA | -0.05
86 | AAGGGCACGTGGGGTT | -0.23
87 | ATTGGCACGTGAGCAA | 0.18
88 | ATGGGCACGTGAAAAT | 0.17
89 | TGTTACACGTGCTGCG | -0.02
90 | TTCGTCACGTGTGTTC | 0.08
91 | AGGGTCACGTGATTGA | 0.2
92 | GTCCGCACGTGGGGTT | -0.13

Row | Sequence | relative binding free energy [kcal/mol]
93 | CATTTCACGTGTTTGA | 0.06
94 | TTGGGCACGTGGGAAC | -0.05
95 | GAGGGCACGTGTGGGG | 0.02
96 | TGATCCACGTGGAGGG | -0.02
97 | AAAGACACGTGTATGT | -0.02
98 | TGTTGCACGTGGATTC | 0.2
99 | TAGTACACGTGAGTTT | 0.4
100 | CTGTTCACGTGCGGTT | 0.3
101 | TTGTGCACGTGTTTAA | -0.02
102 | ATTGTCACGTGGTGGA | -0.01
103 | GCGGTCACGTGGTTTA | 0.03
104 | CGTATCACGTGGAGAT | 0.18
105 | TTTTCCACGTGTTTCT | 0.05
106 | TATCTCACGTGATGTA | 0.35
107 | ACTGGCACGTGATGGC | 0.02
108 | GGCGGCACGTGCGTCG | 0
109 | TAGTTCACGTGAGTGC | 0.51
110 | AATTTCACGTGACAGG | 0.35
111 | GACGGCACGTGTGTCG | 0.02
112 | TTTGGCACGTGTCCTG | -0.2
113 | GGTCGCACGTGGGTCT | -0.08
114 | TGTATCACGTGATTAT | 0.17
115 | CGTAACACGTGTGTAG | 0.12
